As a reminder, the % Inhibition is the drop in the measured response relative to a control, in per cent.

Here are results for 24 compounds from ChEMBL document CHEMBL4888484, “Replenishing the malaria drug discovery pipeline: Screening and hit evaluation of the MMV Hit Generation Library 1 (HGL1) against asexual blood stage Plasmodium falciparum ,using a nano luciferase reporter read-out” (2022).

Out of some 150,000 compounds screened, about 540 (0.36%) showed an effect of 50% or more. The list shows a part of the results.

The assay has as its system Plasmodium falciparum. The experiment in a line: Primary screen in NF54 nanoGlo assay, in single point, at 2uM, 72h; a lower Z score goes with more inhibition. It counts as functional, Erythrocyte. Particulars: timepoint 72 hour.
In the case of `O=C(N[C@H]1CCCCNC1=O)c1ccc2ccccc2c1`, the “% Inhibition” value is reported as 3% and the Z score is reported as -0.64.

In the case of `COC[C@H](C)c1nc(C2(c3ccc(C)cc3)CCOCC2)no1`, the “% Inhibition” value is recorded as -4% and the Z score amounted to 0.84.

Consider `CN1CCC(Cc2nc(Cn3cc4ccccc4n3)n(CCO)n2)CC1`, for which the “% Inhibition” value is given as -10% and the Z score was 1.94.

In the case of `CC(C)[C@@H](c1ccc(F)cc1)N(C)Cc1nnn(CC(F)(F)F)n1`, the “% Inhibition” value was -1% and the Z score was determined as 0.1.

As for `O=C(Nc1ccccn1)N[C@H]1CC(=O)N(c2ccc3c(c2)OCCO3)C1`, the “% Inhibition” value came out at 5% and the Z score was -0.7.

On to `CCOC1CC(O)(CNC(=O)Cc2ccsc2)C1` (stereo not drawn), for which the “% Inhibition” value is given as -2% and the Z score was 0.36.

For the compound `Cn1ncc2c(Nc3ccc4c(c3)nc(C(C)(C)C)n4C)ncnc21`, the “% Inhibition” value is reported as 2% and the Z score is given as -0.35.

With `CCN(CC)S(=O)(=O)c1ccc2c(c1)cc(C(=O)N1CCN(C)CC1)n2C`, the “% Inhibition” value is on record as -7% and the Z score was 1.

Consider `O=C1C[C@H](c2cccc(O)c2)c2c(n(C3CCCCCCC3)[nH]c2=O)N1`, for which the “% Inhibition” value is on record as -6% and the Z score is 0.81.

Consider `Cc1ccc([C@@H](C)NC(=O)N2CCC[C@H]3C(=O)N(C)C[C@H]32)cc1F`, for which the “% Inhibition” value is reported as -13% and the Z score is 2.48.

Regarding `O=C(Nc1nccs1)c1cc2n(n1)CCCO2`, the “% Inhibition” value is listed as -12% and the Z score was determined as 1.92.

As to `CCOc1c(CNCCO)cc(Br)cc1OC`, the “% Inhibition” value is listed as -6% and the Z score worked out at 0.72.

Turning to `CN(C)C(=O)c1ccc(NCc2ccc(Cn3ccnc3)cc2)nc1`, the “% Inhibition” value is reported as -7% and the Z score is recorded as 0.99.

Turning to `CCN1CCC(N(C)C(=O)c2cc3cc(Cl)ccn3n2)C(C)C1` (stereo not drawn), the “% Inhibition” value is listed as -2% and the Z score was 0.22.

Take `CCOc1ccccc1NC(=O)c1ccc(F)c(S(=O)(=O)n2c(/C=C/c3ccccc3)nc3ccccc32)c1`: the “% Inhibition” value is listed as -10% and the Z score was 1.31.

Regarding `CCn1cc(C2OCCC2CNCc2cnc(N(C)C)s2)cn1` (stereo not drawn), the “% Inhibition” value was -13% and the Z score was 1.44.

As to `CNc1cc(-c2cc(C)c3nc(C)nn3c2)c2cc[nH]c2n1`, the “% Inhibition” value is given as -10% and the Z score came out at 1.87.

Take `CCCNC(=O)c1[nH]cnc1C(=O)N[C@H]1CCc2ccccc21`: the “% Inhibition” value was 12% and the Z score is -1.42.

As for `O=C(Nc1ccc2cc[nH]c2c1)N1CCO[C@H](c2ccc(C(F)(F)F)cc2)C1`, the “% Inhibition” value amounted to 5% and the Z score was -0.59.

On to `Cc1ncccc1OCc1nnc(C2CC2)o1`, for which the “% Inhibition” value is -2% and the Z score worked out at 0.24.

Consider `C[C@H]1CC(F)(F)CCN1Cc1cc(C(=O)O)cs1`, for which the “% Inhibition” value is on record as -2% and the Z score was 0.17.

With `CC(C)n1cnc(C(=O)N2CCC3C(CCCN3C3CC3)C2)c1` (stereo not drawn), the “% Inhibition” value is given as -5% and the Z score was found to be 0.57.

With `C[C@@H](CN1CCCC1=O)NC(=O)NC1CCCCCCC1`, the “% Inhibition” value is -32% and the Z score worked out at 3.77.

For `COC(=O)N1CC(C)(NC(=O)Nc2ncccc2OC)C1`, the “% Inhibition” value is reported as -8% and the Z score came to 1.17.
